This is an account of results in PMC4336329 (PLoS ONE, 2015).

Screen size: about 310,000 compounds; about 2,200 (0.71%) showed an effect of 50% or more. Effects have a minus sign here. Some of the results follow.

Chain of human ether-à-go-go-related gene (hERG) potassium channel (Q12809 whole entry, looked up): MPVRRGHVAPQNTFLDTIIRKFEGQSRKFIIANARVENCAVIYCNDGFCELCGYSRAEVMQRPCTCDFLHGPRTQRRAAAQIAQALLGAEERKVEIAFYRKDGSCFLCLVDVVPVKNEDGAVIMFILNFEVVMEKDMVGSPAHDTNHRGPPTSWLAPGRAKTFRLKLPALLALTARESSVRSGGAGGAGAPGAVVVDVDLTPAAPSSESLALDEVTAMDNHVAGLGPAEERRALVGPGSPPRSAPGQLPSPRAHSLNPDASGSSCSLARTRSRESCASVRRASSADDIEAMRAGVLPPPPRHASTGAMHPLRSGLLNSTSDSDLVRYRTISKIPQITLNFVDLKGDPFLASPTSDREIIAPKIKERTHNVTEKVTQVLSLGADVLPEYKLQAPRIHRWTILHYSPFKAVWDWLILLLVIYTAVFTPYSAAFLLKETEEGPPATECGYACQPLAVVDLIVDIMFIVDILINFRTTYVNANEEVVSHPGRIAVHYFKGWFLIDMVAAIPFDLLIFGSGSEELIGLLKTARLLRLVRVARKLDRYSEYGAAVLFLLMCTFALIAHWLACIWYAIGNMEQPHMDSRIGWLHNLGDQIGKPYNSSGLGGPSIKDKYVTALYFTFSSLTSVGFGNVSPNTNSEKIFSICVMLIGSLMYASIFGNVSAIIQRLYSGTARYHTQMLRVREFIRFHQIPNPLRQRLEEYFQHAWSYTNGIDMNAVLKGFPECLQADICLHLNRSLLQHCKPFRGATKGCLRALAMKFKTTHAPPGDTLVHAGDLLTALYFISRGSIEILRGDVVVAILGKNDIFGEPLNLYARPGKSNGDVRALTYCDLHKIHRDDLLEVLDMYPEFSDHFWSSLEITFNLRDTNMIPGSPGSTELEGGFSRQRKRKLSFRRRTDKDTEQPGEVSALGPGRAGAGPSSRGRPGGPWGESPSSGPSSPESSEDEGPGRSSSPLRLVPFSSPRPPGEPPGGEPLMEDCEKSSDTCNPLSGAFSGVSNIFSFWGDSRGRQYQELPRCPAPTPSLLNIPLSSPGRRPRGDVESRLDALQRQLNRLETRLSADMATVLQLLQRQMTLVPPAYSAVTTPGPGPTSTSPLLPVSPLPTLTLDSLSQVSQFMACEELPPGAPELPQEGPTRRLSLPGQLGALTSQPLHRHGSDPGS

This assay concerns the target human ether-à-go-go-related gene (hERG) potassium channel (human, UniProt Q12809). As to the kind of experiment: primary screen, population patch clamp on CHO cells stably expressing hERG.
Consider `COc1cccc(C(=O)NCC(=O)N/N=C/c2ccc(OC(=O)c3cccs3)c(OC)c2)c1`, for which the “hERG current change (%, negative = inhibition) at 1uM” value was 1.01%.

`COc1ccc(C(c2c(C)n(C)n(-c3ccccc3)c2=O)c2c(C)n(C)n(-c3ccccc3)c2=O)cc1`: the “hERG current change (%, negative = inhibition) at 1uM” value was determined as 9.52%.

Turning to `O=C(CN1C(=O)CCS(=O)(=O)c2ccccc21)Nc1cccc(F)c1`, the “hERG current change (%, negative = inhibition) at 1uM” value was 10.6%.

For the molecule `Cc1c(C)c2ccc(OCC(=O)N3CCC(C(=O)O)CC3)cc2oc1=O`, the “hERG current change (%, negative = inhibition) at 1uM” value is -5.78%.

Regarding `O=[N+]([O-])c1cccc(/C=C/c2nc[nH]c2[N+](=O)[O-])c1`, the “hERG current change (%, negative = inhibition) at 1uM” value is 10.8%.

For `COc1ccccc1-c1cc(C(=O)Nc2c(C)n(C)n(-c3ccccc3)c2=O)no1`, the “hERG current change (%, negative = inhibition) at 1uM” value is reported as -0.922%.

Turning to `COc1cccc(NS(=O)(=O)c2nc3nc(C)cc(C)n3n2)c1`, the “hERG current change (%, negative = inhibition) at 1uM” value turned out to be 1.02%.

As to `CCN(CC(=O)Nc1ccccc1OC)C(=O)CSCc1c(C)noc1C`, the “hERG current change (%, negative = inhibition) at 1uM” value is on record as 16.1%.

Consider `CCN(CC(=O)Nc1c(F)cccc1F)C(=O)c1cccc(S(=O)(=O)N2CCN(c3ccccc3)CC2)c1`, for which the “hERG current change (%, negative = inhibition) at 1uM” value is 0.792%.

With `Cc1c(Cl)c([N+](=O)[O-])nn1CC(=O)NCCCN1CCOCC1`, the “hERG current change (%, negative = inhibition) at 1uM” value is recorded as 7.41%.

With `Cc1nc(CSc2ccc(Cl)cc2)cc(NCc2ccccc2)n1`, the “hERG current change (%, negative = inhibition) at 1uM” value came out at 10.9%.

As to `COc1ccc(CCNC(=O)C(=O)NCC2OCCN2S(=O)(=O)c2ccc(C)cc2)cc1OC` (stereo not shown), the “hERG current change (%, negative = inhibition) at 1uM” value was determined as 0.639%.

Regarding `CN(C)S(=O)(=O)N1CCN(S(=O)(=O)N2CCOCC2)CC1`, the “hERG current change (%, negative = inhibition) at 1uM” value is 14.4%.

For `COc1cc(=O)n2c(n1)SCCC2`, the “hERG current change (%, negative = inhibition) at 1uM” value was 10.8%.

Take `Cc1ccc(S(=O)(=O)Nc2c(C(=O)O)[nH]c3ccccc23)c(C)c1`: the “hERG current change (%, negative = inhibition) at 1uM” value came out at 8.66%.

As to `C=COCCNC(=O)C1CC(=O)N(c2ccc(C)cc2)C1` (stereo not shown), the “hERG current change (%, negative = inhibition) at 1uM” value was -0.0701%.

As for `COCc1c(C(C)C)nc(C(C)C)c(/C=C/[C@@H](O)C[C@@H](O)CC(=O)[O-])c1-c1ccc(F)cc1.[Na+]`, the “hERG current change (%, negative = inhibition) at 1uM” value worked out at 12.4%.

Take `O=S(=O)(NCc1ccccn1)c1cc(C(F)(F)F)ccc1Cl`: the “hERG current change (%, negative = inhibition) at 1uM” value turned out to be 3.3%.

Regarding `O=C(c1ccccc1)c1ccccn1`, the “hERG current change (%, negative = inhibition) at 1uM” value turned out to be 6.25%.

Turning to `CC(C)(C)c1ccc(OCC(=O)OCCNC(=O)c2cccnc2)cc1.Cl`, the “hERG current change (%, negative = inhibition) at 1uM” value amounted to 11.5%.

Take `Cc1nn(C(C)c2n[nH]c(=S)n2-c2ccc(F)cc2)c(C)c1[N+](=O)[O-]` (stereo not shown): the “hERG current change (%, negative = inhibition) at 1uM” value was found to be 4.22%.

As for `CC(C)c1csc(CN2CCN(Cc3ccc(F)cc3)C(CCO)C2)n1` (stereo not shown), the “hERG current change (%, negative = inhibition) at 1uM” value is recorded as -4.26%.

Consider `COc1ccccc1NC(=S)N1CCC(NC(=O)NC23CC4CC(CC(C4)C2)C3)CC1`, for which the “hERG current change (%, negative = inhibition) at 1uM” value amounted to 11.7%.

For `[Br-].c1ccc(Cn2c(-c3ccccc3)c[n+]3c2SCCC3)cc1`, the “hERG current change (%, negative = inhibition) at 1uM” value is -17.8%.

`O=C(CSCc1ccc([N+](=O)[O-])cc1)NC1CC2CCC1C2` (stereo not shown): the “hERG current change (%, negative = inhibition) at 1uM” value was 4.2%.

For `COc1ccc2nc(NNC(=O)C3COc4ccccc4O3)sc2c1` (stereo not shown), the “hERG current change (%, negative = inhibition) at 1uM” value is -1.9%.

With `CCOc1ccc(CCNS(=O)(=O)c2cnc[nH]2)cc1OCC`, the “hERG current change (%, negative = inhibition) at 1uM” value amounted to 20.2%.

For the molecule `Cc1nc(SCC(=O)Nc2ccccc2)c2oc3ccccc3c2n1`, the “hERG current change (%, negative = inhibition) at 1uM” value turned out to be 13.3%.

Turning to `O=C(NCC1([N+](=O)[O-])CN(C(=O)c2ccccc2)CN(C(=O)c2ccccc2)C1)c1ccccc1`, the “hERG current change (%, negative = inhibition) at 1uM” value came to 8.76%.

Turning to `CC(C)(C)OC(=O)N1CCC(NC(=O)c2[nH]cnc2C(=O)N[C@@H](Cc2ccccc2)C(=O)OCc2ccccc2)CC1`, the “hERG current change (%, negative = inhibition) at 1uM” value is listed as 14.6%.

Regarding `Cc1cc(C)c(S(=O)(=O)c2ccc(Cl)cc2)c(=O)[nH]1`, the “hERG current change (%, negative = inhibition) at 1uM” value is listed as 9.23%.

With `CCOc1cc(/C=N/N=C(\N)c2nonc2N)cc(Br)c1OCc1cccc2ccccc12`, the “hERG current change (%, negative = inhibition) at 1uM” value worked out at 16.5%.

Consider `COc1cccc(CNS(=O)(=O)c2ccc3c(c2)CCN3C(=O)C2CC2)c1`, for which the “hERG current change (%, negative = inhibition) at 1uM” value is given as 5.68%.

Regarding `Cc1cc(=O)oc2c(C)c(OC(C)C(=O)NCCCn3ccnc3)ccc12` (stereo not shown), the “hERG current change (%, negative = inhibition) at 1uM” value came out at 3.87%.

Take `NNC(=O)[C@H]1C[C@@H]1c1ccccc1`: the “hERG current change (%, negative = inhibition) at 1uM” value was determined as 6.36%.

On to `O=C(O)c1ccc(CS(=O)c2cccc(C(F)(F)F)c2)o1` (stereo not shown), for which the “hERG current change (%, negative = inhibition) at 1uM” value is recorded as -12.2%.

Consider `CC(O)Cc1cn([C@@H](CCCCN)C(=O)N2CCNCC2)nn1.Cl` (stereo partly shown), for which the “hERG current change (%, negative = inhibition) at 1uM” value worked out at 6.64%.

Turning to `COc1ccc(C(=O)NC(=S)N2CCOCC2)cc1OC`, the “hERG current change (%, negative = inhibition) at 1uM” value came out at 2.16%.

Turning to `N=C1/C(=C\c2ccc(OC(=O)c3ccco3)cc2)C(=O)N=C2SC(N3CCCCC3)=NN12`, the “hERG current change (%, negative = inhibition) at 1uM” value was 18.1%.

Consider `CCC(C)NC(=O)c1cn(-c2cccc(C)n2)cn1` (stereo not shown), for which the “hERG current change (%, negative = inhibition) at 1uM” value is recorded as -6.25%.

As to `C=CCn1c(=O)c(C(=O)OCC)c(O)c2ccccc21`, the “hERG current change (%, negative = inhibition) at 1uM” value worked out at 11.1%.

In the case of `CCOC(=O)CCC(=O)Nc1ccc(S(=O)(=O)N2CCCC2)cc1`, the “hERG current change (%, negative = inhibition) at 1uM” value turned out to be 6.81%.

As to `Cn1c(C2CCCCC2)nc2c1c(=O)[nH]c(=O)n2Cc1ccccc1`, the “hERG current change (%, negative = inhibition) at 1uM” value was found to be 2.82%.

For `COc1ccc(OCc2nnc(SCC(=O)Nc3ccc(C)cc3)o2)cc1`, the “hERG current change (%, negative = inhibition) at 1uM” value came to 17.6%.

`COc1ccc(NC(=O)c2ccccc2NC(=O)COc2ccccc2)cc1`: the “hERG current change (%, negative = inhibition) at 1uM” value was -0.175%.

Regarding `FC(F)(F)C1CCCN(c2nsc3ccccc23)C1` (stereo not shown), the “hERG current change (%, negative = inhibition) at 1uM” value is 19.8%.

As for `CCOc1ccc2nc(NC(=O)Nc3ccccc3)sc2c1`, the “hERG current change (%, negative = inhibition) at 1uM” value was 4.57%.

Turning to `O=C(O)COCC(=O)N1CCc2c([nH]c3ccccc23)C1C(F)(F)F` (stereo not shown), the “hERG current change (%, negative = inhibition) at 1uM” value was found to be 15.2%.

Consider `CCCn1c(=O)[nH]c(=O)c2c1nc(-c1ccccc1OC(F)F)n2CCOC`, for which the “hERG current change (%, negative = inhibition) at 1uM” value is 12.2%.

`CC(C)(CO)NCC(=O)Nc1cc(C(F)(F)F)cc(NC(=O)CNC(C)(C)CO)c1Cl`: the “hERG current change (%, negative = inhibition) at 1uM” value came out at 14.6%.

Turning to `CCc1cc(C(=O)Nc2ncccc2O)sc1C`, the “hERG current change (%, negative = inhibition) at 1uM” value is 6.02%.

In the case of `CC(C)C(=O)Nc1cc(=O)[nH]c2ncnn12`, the “hERG current change (%, negative = inhibition) at 1uM” value was 5.7%.

For `Cc1ccc2cc3c(N)c(C(=O)N4CC(=O)Nc5ccccc54)sc3nc2c1`, the “hERG current change (%, negative = inhibition) at 1uM” value amounted to 18.6%.

Turning to `CC(Nc1nc(-c2ccccc2O)nc2ccccc12)c1ccccc1` (stereo not shown), the “hERG current change (%, negative = inhibition) at 1uM” value is 8.76%.

For `Cc1nc(-c2ccccc2)sc1C(=O)Nc1ccc(S(N)(=O)=O)cc1`, the “hERG current change (%, negative = inhibition) at 1uM” value was determined as 13.1%.
